Experimental data: the supplement of paper PMC3334620
The full ranking holds about 33,000 sequences; the median of “E-score (-0.5 to 0.5)” is about -0.017, and the highest 2% start at about 0.3. This is one part of the list.

target: T1, Sut1 (UniProt P53032); experiment: PBM E-score (8-mer binding enrichment) (E-score (-0.5 to 0.5)); higher = stronger / more preferred TF binding; most listed sequences are background and not binding sites; settings: protein concentration: 200 nM; construct: GST-full length
T1 sequence: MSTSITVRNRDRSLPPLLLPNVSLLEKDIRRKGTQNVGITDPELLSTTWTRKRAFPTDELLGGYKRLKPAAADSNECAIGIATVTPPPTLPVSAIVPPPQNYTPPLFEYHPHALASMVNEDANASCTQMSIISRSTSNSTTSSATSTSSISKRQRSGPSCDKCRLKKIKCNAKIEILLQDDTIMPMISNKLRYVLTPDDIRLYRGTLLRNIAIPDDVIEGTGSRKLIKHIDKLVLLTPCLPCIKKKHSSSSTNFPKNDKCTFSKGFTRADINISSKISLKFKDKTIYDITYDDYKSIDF
Summary of the method: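 Full-length yeast transcription factors or their DNA-binding domains, GST-tagged and expressed with PURExpress, were applied at about 100-200 nM to universal all-10-mer Agilent arrays. These arrays had been made double-stranded by primer extension on fresh or once-stripped slides. Detection used fluorescent anti-GST, normalisation used masliner, and E-scores for ungapped eight-base words pooled with reverse complements came from the Universal PBM Analysis Suite.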

First: TCTGATAA
Second: TATCCAAA
The “PBM E-score” value of the first is lower: -0.0508 for the first, 0.209 for the second.

First: GCTAAAGA
Second: GGTAAAAA
The “PBM E-score” value of the first is higher: 0.114 for the first, 0.111 for the second.

First: CACGCGGC
Second: CTAGAAAA
The “PBM E-score” value of the first is lower: -0.147 for the first, 0.0566 for the second.

Going from CTCTGTTC to CGATGGGC, the “PBM E-score” value falls from -0.156 to -0.193.

Compared with CAATACTC, ATGAGCTC is lower in “PBM E-score” value: 0.187 for the first, -0.0175 for the second.

Compared with GGGCTCGA, AAAATTGG is higher in “PBM E-score” value: -0.318 for the first, 0.0883 for the second.

Compared with CCGTTGTC, ACGGCTAT is lower in “PBM E-score” value: 0.0994 for the first, -0.0169 for the second.

Going from CACGGCGC to CTGGTTGC, the “PBM E-score” value rises from -0.0542 to 0.229.

First: GGTGGTTA
Second: CAGTAGAC
The “PBM E-score” value of the first is lower: -0.102 for the first, -0.0193 for the second.

First: GAATTAAC
Second: AACACAGA
The “PBM E-score” value of the first is higher: 0.182 for the first, -0.175 for the second.

Compared with CCCCCGAA, GAATCTAA is higher in “PBM E-score” value: -0.0826 for the first, 0.127 for the second.

Compared with AGCCACTG, CATCCTAC is lower in “PBM E-score” value: -0.0195 for the first, -0.161 for the second.

Going from AAAGGAAT to GCGATTTA, the “PBM E-score” value rises from -0.00094 to 0.00681.

Going from GATAGGGC to AGCTGGCC, the “PBM E-score” value rises from -0.146 to -0.0824.

Going from GGTTGCAC to GAGCCTCA, the “PBM E-score” value falls from -0.0582 to -0.198.

First: GCCGGAAA
Second: CCCGTATC
The “PBM E-score” value of the first is higher: 0.244 for the first, -0.174 for the second.

Compared with CTAAGGAG, TAGTCACA is higher in “PBM E-score” value: -0.219 for the first, -0.0374 for the second.

Compared with ATCCCCAA, ATAGAAAT is higher in “PBM E-score” value: -0.0846 for the first, 0.289 for the second.

First: CGACTATC
Second: CCCTCCGA
The “PBM E-score” value of the first is lower: 0.0097 for the first, 0.0492 for the second.

First: AGTGATTA
Second: AATCTGAC
The “PBM E-score” value of the first is higher: 0.0842 for the first, 0.0152 for the second.

First: CATACTTA
Second: GGCTCTCA
The “PBM E-score” value of the first is higher: -0.00679 for the first, -0.111 for the second.

Going from TAGGGCGA to CAAGTCTA, the “PBM E-score” value rises from -0.179 to 0.0167.

Compared with CCTGGTCC, TAATGAGA is higher in “PBM E-score” value: -0.0487 for the first, 0.206 for the second.

First: CCTATTCG
Second: CGCGCAGC
The “PBM E-score” value of the first is higher: -0.0612 for the first, -0.097 for the second.

Compared with CTCTGATA, AAGATCAG is lower in “PBM E-score” value: -0.0121 for the first, -0.0975 for the second.

Going from ACTCGGTA to TAGCCCTA, the “PBM E-score” value falls from -0.0445 to -0.175.

Going from CTGTGTCC to CTTTTCTC, the “PBM E-score” value rises from 0.0176 to 0.107.

Going from ACTCTAGC to AAAGTCGA, the “PBM E-score” value rises from -0.0418 to -0.0252.

Compared with GAGCACGC, ACCGTCTA is lower in “PBM E-score” value: -0.0176 for the first, -0.116 for the second.

First: AATCATAC
Second: AACACGCT
The “PBM E-score” value of the first is higher: 0.204 for the first, -0.0943 for the second.

Going from GTCCCGAA to AAGACACA, the “PBM E-score” value falls from 0.00289 to -0.13.

First: ACCGGGTA
Second: AAATATCT
The “PBM E-score” value of the first is lower: -0.025 for the first, 0.179 for the second.

Compared with CAGCATGA, ATATCAAC is lower in “PBM E-score” value: 0.0381 for the first, 0.0351 for the second.

Compared with GCTCACAA, ATATATAT is higher in “PBM E-score” value: 0.0416 for the first, 0.302 for the second.

Compared with CTAGGCTC, ACCGCGTG is lower in “PBM E-score” value: -0.149 for the first, -0.15 for the second.

Compared with CGTCCAAC, ACGTCTCT is higher in “PBM E-score” value: -0.0705 for the first, -0.0559 for the second.

Going from CCATCATC to AACGCTAG, the “PBM E-score” value rises from -0.0983 to 0.0323.

First: CGATGTCA
Second: TCCAGGCA
The “PBM E-score” value of the first is higher: -0.0509 for the first, -0.0581 for the second.

First: AGAACGAG
Second: CTTTTAGA
The “PBM E-score” value of the first is higher: 0.071 for the first, 0.0706 for the second.

Compared with GTGCCCAC, CCAAGTAA is higher in “PBM E-score” value: -0.258 for the first, -0.0496 for the second.

Compared with CCCCCGCC, GACACAGC is higher in “PBM E-score” value: -0.266 for the first, -0.0804 for the second.

Compared with GACGAGTA, AGAGTTAT is lower in “PBM E-score” value: 0.0781 for the first, 0.0605 for the second.

First: CTGGCGCA
Second: GCTTTGCA
The “PBM E-score” value of the first is lower: -0.339 for the first, -0.22 for the second.

Compared with AACCTTTA, CCGTCCTC is lower in “PBM E-score” value: 0.0531 for the first, -0.0982 for the second.

First: AAACCGGA
Second: CTTACGGC
The “PBM E-score” value of the first is higher: 0.309 for the first, -0.0526 for the second.

Compared with AACACCCC, CACCCGCC is higher in “PBM E-score” value: -0.0746 for the first, -0.06 for the second.

Going from ACCTCAAA to TAGGAGGA, the “PBM E-score” value falls from 0.078 to -0.156.

Compared with CCCTGGCA, GAAAAACA is higher in “PBM E-score” value: -0.359 for the first, 0.125 for the second.

Compared with CGGGAAGC, GGAACTAC is higher in “PBM E-score” value: -0.119 for the first, -0.062 for the second.

First: AGGGTGGA
Second: ACTTACGA
The “PBM E-score” value of the first is lower: -0.117 for the first, 0.202 for the second.

First: CAGTGTAG
Second: ATAACCTC
The “PBM E-score” value of the first is lower: -0.0327 for the first, -0.0198 for the second.

Compared with ATAGTATG, CGCTAAGA is lower in “PBM E-score” value: 0.277 for the first, -0.106 for the second.

Compared with ATGCATAG, CCGTGTAG is lower in “PBM E-score” value: 0.0432 for the first, -0.104 for the second.

First: GCGTAAGC
Second: CAGCTATA
The “PBM E-score” value of the first is lower: -0.083 for the first, 0.0551 for the second.

Compared with CGAATCAA, CGCGTGCA is lower in “PBM E-score” value: 0.242 for the first, -0.208 for the second.

Compared with CTCAGTCC, CAACCATA is higher in “PBM E-score” value: -0.0236 for the first, 0.172 for the second.

First: GAATTCCC
Second: ATACTAAG
The “PBM E-score” value of the first is lower: -0.116 for the first, 0.142 for the second.

Going from CCTTGCCA to ATGCTGCC, the “PBM E-score” value falls from -0.0514 to -0.274.

Compared with CCGAGAAA, ACTAGCAG is lower in “PBM E-score” value: 0.339 for the first, 0.0346 for the second.

Going from CTGTAGTC to AGCTCTAC, the “PBM E-score” value falls from -0.152 to -0.325.

First: ATAAGTTA
Second: GGTAATAC
The “PBM E-score” value of the first is higher: 0.208 for the first, 0.18 for the second.

Going from CCAGCAGC to AGGGTCAA, the “PBM E-score” value rises from -0.262 to 0.0235.

First: ACCGATAA
Second: GTCGTAAC
The “PBM E-score” value of the first is higher: 0.18 for the first, -0.00388 for the second.

First: AGCCCTTA
Second: GAAGCGCA
The “PBM E-score” value of the first is lower: -0.116 for the first, 0.00885 for the second.

First: GCCTCTAC
Second: ATAAAAGC
The “PBM E-score” value of the first is lower: -0.256 for the first, 0.139 for the second.

Compared with GATGAGGC, TTACCAAA is higher in “PBM E-score” value: -0.237 for the first, 0.0865 for the second.

First: AGTGGTTC
Second: GACGTATA
The “PBM E-score” value of the first is lower: -0.0574 for the first, 0.0204 for the second.

Compared with ACGTCAGT, CACGCCAA is higher in “PBM E-score” value: -0.0652 for the first, -0.0569 for the second.

First: CACGTCGG
Second: CAATCGGA
The “PBM E-score” value of the first is lower: -0.127 for the first, 0.286 for the second.

Compared with CCTGTACG, AGTGTCGG is higher in “PBM E-score” value: -0.0826 for the first, 0.139 for the second.

Compared with CACCCCTG, ACCGTAGG is lower in “PBM E-score” value: -0.24 for the first, -0.334 for the second.

Compared with CAGGCAGG, AATCGTCA is higher in “PBM E-score” value: -0.197 for the first, 0.0105 for the second.

Going from GCCCGCGC to CGCGTTAA, the “PBM E-score” value rises from -0.106 to -0.00965.

First: CGGCGACG
Second: CCTATCCG
The “PBM E-score” value of the first is higher: 0.0219 for the first, -0.0504 for the second.

Going from AATCGTGA to ATAAACGG, the “PBM E-score” value rises from -0.0296 to 0.247.

Compared with TACATACA, GATGATAC is lower in “PBM E-score” value: 0.249 for the first, 0.148 for the second.

Compared with AGAAAAGG, GCTAATAA is lower in “PBM E-score” value: 0.118 for the first, 0.0879 for the second.

First: GTCTAAAA
Second: CCGGTGAG
The “PBM E-score” value of the first is higher: -0.00696 for the first, -0.0789 for the second.

Compared with GGCGAGCA, CGCGGTTA is higher in “PBM E-score” value: -0.21 for the first, 0.00192 for the second.

First: ACGTTTTG
Second: AAAGGTGA
The “PBM E-score” value of the first is higher: -0.0348 for the first, -0.124 for the second.

Compared with GGATTGCA, GGGAGATA is lower in “PBM E-score” value: 0.0644 for the first, -0.144 for the second.

Going from AGTATGAT to TCATCGAA, the “PBM E-score” value falls from 0.168 to 0.0449.

Compared with CGAACACA, AGAGAATC is lower in “PBM E-score” value: 0.0704 for the first, -0.0404 for the second.

Compared with CCGATCGC, TACCGTGA is higher in “PBM E-score” value: -0.12 for the first, -0.0661 for the second.

Compared with GAGACGGA, CTTACATC is lower in “PBM E-score” value: 0.142 for the first, 0.003 for the second.

Going from ATGGTGCA to CTTGAGTC, the “PBM E-score” value falls from -0.0833 to -0.137.
